Measurements reported in PubChem BioAssay AID1346378 (National Center for Advancing Translational Sciences (NCATS), 2018).
“And” between values parts separate entries of the source, which are not always exact repeats. Equal values may be shown once. Out of some 420,000 compounds screened, about 540 (0.13%) were called active. This list was built around the results that the source calls inconclusive (neither active nor inactive); the mix of calls is not that of the screen. Rule as the data show it: active = activity change below about -50%; inconclusive = mostly about -30% to -49%; inactive = weaker than that.

Target: Phosphatidylinositol 4-kinase type 2-alpha (Homo sapiens) (UniProt Q9BTU6)
Sequence of UniProt Q9BTU6 (Q9BTU6 whole entry, looked up): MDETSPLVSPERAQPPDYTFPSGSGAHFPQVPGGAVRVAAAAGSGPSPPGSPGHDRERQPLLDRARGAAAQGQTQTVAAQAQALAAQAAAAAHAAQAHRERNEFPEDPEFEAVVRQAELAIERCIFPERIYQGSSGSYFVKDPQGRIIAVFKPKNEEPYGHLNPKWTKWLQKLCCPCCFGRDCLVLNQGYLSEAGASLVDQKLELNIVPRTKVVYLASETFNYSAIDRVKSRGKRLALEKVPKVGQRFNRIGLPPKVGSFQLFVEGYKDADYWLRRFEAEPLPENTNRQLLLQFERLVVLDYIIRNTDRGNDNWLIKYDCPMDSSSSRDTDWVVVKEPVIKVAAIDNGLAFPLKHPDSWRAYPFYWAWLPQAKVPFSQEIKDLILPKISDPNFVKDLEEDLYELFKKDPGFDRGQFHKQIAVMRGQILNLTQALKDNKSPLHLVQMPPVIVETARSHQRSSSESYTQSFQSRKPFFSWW
Assay: qHTS for small molecular inhibitors of PI4K2A;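 also: -100% = wells without enzyme as full effect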
Conditions: purified PI4K2A, ADP-Glo luminescence, 1 h; at 76.9 µM, active compounds read low
Procedure, shortened: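 Compounds are screened against recombinant PI4K2A using PI as substrate and ATP, the latter dispensed at 300 microM. Reactions run one hour at ambient temperature before ADP-Glo detection; full inhibition defined by wells lacking enzyme.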

Activity change, negative = inhibition, inactive:
Cc1ccc(NC(=O)Cn2c(-c3nonc3N)nc3ccccc32)cc1C 0.456%, Cc1ccnc(SCC(=O)Nc2oc(-c3ccccc3)c(-c3ccccc3)c2C#N)n1 -3.24%, Fc1cccc(CSc2ccc3nnc(-c4cccnc4)n3n2)c1 -3.86%, CC(=O)Nc1c(I)cc(I)c(C(=O)O)c1I 1.05%, COc1cccc(C(NC(=O)C2CCN(CCCOc3ccccc3)CC2)c2ccccn2)c1 (stereo unspecified) 5%, CO[C@H]1C=CO[C@@]2(C)Oc3c(C)c(O)c4c(O)c(c(C=NN5CCN(C)CC5)c(O)c4c3C2=O)NC(=O)C(C)=CC=C[C@H](C)[C@H](O)[C@@H](C)[C@@H](O)[C@@H](C)[C@H](OC(C)=O)[C@@H]1C -16.6%, Cn1c2c(c(=O)n(C)c1=O)[C@@]1(C(=O)Nc3ccccc31)C(C#N)=C(N)O2 5.76%, CN(CC(=O)Nc1ccc(OC(F)(F)F)cc1)C(=O)/C=C/c1cc2c(cc1[N+](=O)[O-])OCO2 2.51%, Cc1ccccc1-c1cc(=O)c2c(O)cccc2o1 -2.79%, COc1ccc(-c2cc(C(=O)N3CCN(C(=O)c4ccco4)CC3)[nH]n2)cc1 -8.84%, CCc1ccc(C2NC(=O)c3[nH]nc(-c4cccc(OC)c4)c32)cc1 (stereo unspecified) 2.99%, OCCNCc1ccc(-c2ccccc2)cc1 -4.38%, CC(C)(C)NC(=O)CCN(/N=C/c1ccc([N+](=O)[O-])o1)C1=NS(=O)(=O)c2ccccc21 3.59%, Cc1cc(=O)oc2c(C)c(OCC(=O)N3CCN(c4ccccc4)CC3)ccc12 9.7%, COc1cc(OC)cc(C(=O)Nc2ccccc2C(=O)NC2CC2)c1 2.6%, COc1ccc(NC(=S)Nc2ccc(OC)cc2OC)c(OC)c1 0.107%, CC[C@]12c3[nH]c4ccc(OC)cc4c3CCN1C(=O)C(CC(=O)NCCCn1ccnc1)C[C@@H]2C(=O)N1CCN(C(=O)c2ccco2)CC1 (stereo partly specified) -1.88%, COc1ccc(NC(=O)c2sc(=O)n(Cc3ccccc3C#N)c2C)cc1OC -0.659%, O=C(OCC(=O)N1CCCCC1)c1c[nH]c2ccccc12 2.21%, COC(=O)c1ccc(NC(C)=O)cc1OC 0.927%, O=S(=O)(CCOc1ccccc1)c1nc2ccccc2[nH]1 -4.7%, Cc1ccccc1OCC(=O)N(Cc1ccc(N(C)C)cc1)CC1CCCO1 (stereo unspecified) -2.07%, COc1cccc(NC(=O)Cn2cnc3c(nc4n3CCCCC4)c2=O)c1 3.09%, O=C(NNC(=O)c1ccccc1[N+](=O)[O-])c1ccccn1 -22.6%, Cn1c(=O)cc(OCCCC(=O)Nc2cc(-c3cn[nH]c3)ccn2)c2ccccc21 3.49%, CCOC(=O)CN(Cc1ccccc1)C(C(=O)NC1CCCCC1)c1ccccc1 (stereo unspecified) 0.0029%, CN(CC(=O)Nc1ccc(Cl)cc1)C(=O)c1cccc(S(=O)(=O)NCc2ccccc2)c1 -1.51%, O=C(N/N=C\c1cc(Br)c(Br)o1)c1cncc(Br)c1 -2.4%

Activity change, negative = inhibition, active:
O=C(O)c1ccc(-c2noc(-c3ccccc3F)n2)cc1 -68.5%, COc1cc(CNc2ccc(O)cc2)cc(Br)c1OCc1ccccc1F -51.3%, O=C(Nc1ccc(F)cc1)Nc1ccc(N2CCOCC2)c2nonc12 -58.6%, Cc1csc(N=Nc2ccc(N(C)C)cc2)[n+]1[O-] -79%, CCC(C)Cn1c(O)cc2nn(-c3nc4ccccc4s3)c(=O)c-2c1C (stereo unspecified) -52%, C/C(=N/NC(=O)c1cccs1)c1c(C)[nH]n(-c2nc3ccccc3s2)c1=O -65.8%, O=c1c2c(-c3ccco3)csc2nc(SCc2cn3cccnc3n2)n1-c1ccccc1 -58.2%, CC(C)N(C(=O)N1CCC(c2nc(-c3ccncc3)no2)CC1)C(C)C -71.8%, Nn1cnnc1N/N=C/c1ccc(Cl)c([N+](=O)[O-])c1 -51.8%, O=C(COc1ccc2c(c1)CCC2)Nc1ccccn1 -62.1%, Cc1[nH]cnc1C(=O)N/N=C/c1c(Cl)cccc1Cl -68.9%, Cc1ccc(C(=O)O/N=C(\N)c2ccccn2)c(C)c1 -84.8%

Activity change, negative = inhibition, inconclusive:
COc1ccc(OC)c(C2C(C#N)=C(N)Oc3c2c(C)nn3-c2cccc(Cl)c2)c1 (stereo unspecified) -34.8%, O=C1C(=Cc2ccccn2)CCc2ccccc21 -33.2%, Cc1ccc(CNC(=O)Nc2cn(CC(C)C)c(=O)c3ccccc23)cc1 -44.2%, Cc1ccccc1Nc1cc2ccccc2c(=O)[nH]1 -45.9%, CC1=C(C(=O)Nc2ccccc2)C(c2ccccc2)N2C(=O)CSC2=N1 (stereo unspecified) -38.4%, COc1cc(/C=C2/SC(=S)N(Cc3ccccc3)C2=O)cc(OC)c1O -32.1%, Cc1c(O)ccc(/C=N/Nc2ncccc2[N+](=O)[O-])c1O -32%, Nc1ccc2nc(-c3ccc(O)cc3)sc2c1 -33.7%, CCN(CC)c1ccc2nc3ccc(N)cc3[n+](-c3ccccc3)c2c1 -49.1%, CC1(c2nnnn2Cc2ccccc2)CCC(=O)N1CCc1ccccc1F (stereo unspecified) -34%, CNC(=O)c1ccc(NC(=O)c2nsc3ccccc23)cc1 -40.7%, COc1cccc(NC(=O)c2cnn(-c3ccccc3)c2C)c1 -36.9%, COC(=O)c1ccccc1NC1=C/C(=N\S(=O)(=O)c2cccs2)c2ccccc2C1=O -43.2% and -41.5%, O=C(NCc1ccco1)Nc1ccc2nsnc2c1 -42.3%, CCOc1cc(CNc2ccc(O)cc2)cc(Br)c1OCc1ccccc1F -33.9%, Oc1ccc(NCc2ccc(OCc3ccccc3Cl)cc2)cc1 -44%, Cc1ccc(NC(=O)CSc2nc(NS(=O)(=O)c3ccccc3)cc(=O)[nH]2)cc1 -46%, NC(=S)NNc1cccc2cccnc12 -38.2%, Nc1nc(Nc2ccccc2)nc2ccccc12 -37.6%, O=C(COC(=O)c1ccccc1[N+](=O)[O-])c1ccc2c(c1)OCO2 -43%, C=C(NC(=O)C(=C)NC(=O)c1csc(C2=NC3c4csc(n4)C4NC(=O)c5csc(n5)C(C(C)(O)C(C)O)NC(=O)C5CSC(=N5)/C(=C/C)NC(=O)C(C(C)O)NC(=O)c5csc(n5)C3(CC2)NC(=O)C(C)NC(=O)C(=C)NC(=O)C(=C)NC(=O)C(C(C)C)NC2C=Cc3c(C(C)O)cc(nc3C2O)C(=O)OC4C)n1)C(N)=O (stereo unspecified) -40.5%, COc1ccc2noc3c2c1C(=O)c1ccccc1-3 -45.8%, O=S(=O)(c1cc(O)ccc1O)c1cccc2c(S(=O)(=O)c3cc(O)ccc3O)cccc12 -36.9%, O=C(Nc1ccccc1)c1ccc(CSc2ccccn2)cc1 -33.5%, CC1(C)CC(N=C2C([N+](=O)[O-])=CC=C3C2=NC2(CCCCC2)N3O)CC(C)(C)N1 -30.1%, COc1ccc(-n2[nH]c(C)cc2=O)cc1 -41.1%, CN(C(=O)COC(=O)c1cc(-c2ccco2)nc2ccccc12)C1CCS(=O)(=O)C1 (stereo unspecified) -41.4%, O=c1[nH]c(Nc2ccccc2)cc2cc(Br)ccc12 -48.5%, CCOc1cc(/C=N/Nc2nnc(C)n2N)ccc1OC(C)=O -42.3%, Cc1cc(=O)n(-c2ccccc2Cl)[nH]1 -42.2%, COc1ncnc2sc(-c3ccccc3)cc12 -43.2%, CCN(c1ccccc1)c1cc2ccccc2c(=O)[nH]1 -40.5%, Cc1cc(=O)c2c(o1)C(=O)c1occc1C2=O -32.8%, c1ccn2cc(-c3ccc4c(c3)OCCO4)nc2c1 -38%, Cc1[nH][nH]c(=O)c1C(c1ccc(-c2ccc(Cl)c(Cl)c2)o1)c1c(C)[nH][nH]c1=O -48.4%, Nc1c(-c2ccc(Cl)cc2)cnn1-c1ccccc1 -36.4%, C[C@@H]1CN([C@H](C)CO)C(=O)CCCn2cc(nn2)CO[C@H]1CN(C)S(=O)(=O)c1ccc(-n2cccn2)cc1 -46.3%, NS(=O)(=O)c1ccc(-c2ccc(/C=C3\C(=O)Nc4cc(Cl)ccc43)o2)cc1 -31.4%, Oc1cccc2c(-c3nn[nH]n3)ccnc12 -35.1%, CSc1nc(N(C)CCO)c2sc3nc(-c4ccco4)c4c(c3c2n1)CCC4 -38.3%, CC1=C(C(=O)Nc2ccccc2C)C(c2ccc(C)o2)n2c(s/c(=C/c3ccccc3)c2=O)=N1 (stereo unspecified) -37.9%, CCN1C(=O)c2cccc3c(N)ccc1c23 -39.8%, CC(=O)c1ccc(NC(=O)CC2Nc3cccc4cccc(c34)NC2=O)cc1 (stereo unspecified) -37.7%, COc1ccc(NC(=O)c2cc(-c3ccco3)nc3ccccc23)cn1 -40%, COC1=C(Br)C(=O)c2nc(C)ccc2C1=O -36%, O=[N+]([O-])c1cc(F)c2cccnc2c1O -32.6%
